In publication PMC9886552:
These are yes or no findings as the source states them, for the method shown. In cells and extracts the contact can be indirect. Some entries that bind do so weakly or less than the wild type. For part of these data: Sequences can lack the tags named with a protein.

T1: C-terminally FLAG-tagged ACO2 (UniProt Q99798)
T1 sequence: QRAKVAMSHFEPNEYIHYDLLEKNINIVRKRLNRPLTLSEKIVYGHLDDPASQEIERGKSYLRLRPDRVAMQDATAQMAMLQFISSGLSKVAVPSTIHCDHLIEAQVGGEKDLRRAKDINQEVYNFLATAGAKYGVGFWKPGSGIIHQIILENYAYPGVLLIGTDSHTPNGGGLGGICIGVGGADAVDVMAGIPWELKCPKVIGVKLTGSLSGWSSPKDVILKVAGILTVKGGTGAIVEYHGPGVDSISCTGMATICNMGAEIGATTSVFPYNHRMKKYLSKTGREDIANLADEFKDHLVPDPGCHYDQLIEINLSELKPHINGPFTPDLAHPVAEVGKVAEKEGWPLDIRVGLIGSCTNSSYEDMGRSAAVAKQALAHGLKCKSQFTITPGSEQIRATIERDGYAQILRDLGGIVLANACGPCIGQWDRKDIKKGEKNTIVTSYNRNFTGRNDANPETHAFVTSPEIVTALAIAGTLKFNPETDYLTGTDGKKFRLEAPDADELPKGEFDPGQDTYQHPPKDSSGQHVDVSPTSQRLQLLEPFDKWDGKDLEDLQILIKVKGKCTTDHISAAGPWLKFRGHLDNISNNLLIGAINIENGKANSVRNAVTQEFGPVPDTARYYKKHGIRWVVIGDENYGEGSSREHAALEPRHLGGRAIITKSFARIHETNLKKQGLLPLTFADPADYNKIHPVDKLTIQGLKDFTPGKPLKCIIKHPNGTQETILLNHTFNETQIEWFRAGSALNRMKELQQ

T2: C-terminally FLAG-tagged MCEE (UniProt Q96PE7)
T2 sequence: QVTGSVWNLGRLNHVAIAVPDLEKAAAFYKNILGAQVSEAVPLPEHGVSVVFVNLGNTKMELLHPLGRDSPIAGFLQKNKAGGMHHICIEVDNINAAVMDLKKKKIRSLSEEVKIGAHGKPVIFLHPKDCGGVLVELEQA

T3: C-terminally FLAG-tagged MMAB (UniProt Q96EY8)
T3 sequence: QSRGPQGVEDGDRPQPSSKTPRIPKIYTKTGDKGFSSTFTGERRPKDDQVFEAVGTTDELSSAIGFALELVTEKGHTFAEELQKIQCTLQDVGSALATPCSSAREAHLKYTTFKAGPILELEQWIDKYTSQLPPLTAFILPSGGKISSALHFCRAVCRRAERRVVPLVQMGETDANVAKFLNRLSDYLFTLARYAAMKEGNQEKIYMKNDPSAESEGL

T4: C-terminally FLAG-tagged VLCAD (UniProt P49748)
T4 sequence: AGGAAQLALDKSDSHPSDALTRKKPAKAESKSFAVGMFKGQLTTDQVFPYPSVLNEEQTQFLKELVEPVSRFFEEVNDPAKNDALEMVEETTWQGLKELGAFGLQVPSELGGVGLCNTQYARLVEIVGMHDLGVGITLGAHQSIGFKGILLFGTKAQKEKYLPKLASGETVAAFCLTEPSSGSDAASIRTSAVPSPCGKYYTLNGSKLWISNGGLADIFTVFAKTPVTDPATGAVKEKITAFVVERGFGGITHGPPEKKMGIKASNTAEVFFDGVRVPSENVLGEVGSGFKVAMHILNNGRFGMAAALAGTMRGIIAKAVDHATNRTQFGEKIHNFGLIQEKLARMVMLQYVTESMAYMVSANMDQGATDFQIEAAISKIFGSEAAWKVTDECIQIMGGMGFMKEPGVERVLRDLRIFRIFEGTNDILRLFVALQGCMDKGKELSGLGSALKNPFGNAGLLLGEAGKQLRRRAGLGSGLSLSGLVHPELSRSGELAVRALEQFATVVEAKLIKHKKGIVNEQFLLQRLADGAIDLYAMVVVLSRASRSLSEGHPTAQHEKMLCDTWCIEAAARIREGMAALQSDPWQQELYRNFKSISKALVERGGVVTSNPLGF

T5: C-terminally FLAG-tagged methylmalonyl-CoA mutase (MMUT) (UniProt P22033)
T5 sequence: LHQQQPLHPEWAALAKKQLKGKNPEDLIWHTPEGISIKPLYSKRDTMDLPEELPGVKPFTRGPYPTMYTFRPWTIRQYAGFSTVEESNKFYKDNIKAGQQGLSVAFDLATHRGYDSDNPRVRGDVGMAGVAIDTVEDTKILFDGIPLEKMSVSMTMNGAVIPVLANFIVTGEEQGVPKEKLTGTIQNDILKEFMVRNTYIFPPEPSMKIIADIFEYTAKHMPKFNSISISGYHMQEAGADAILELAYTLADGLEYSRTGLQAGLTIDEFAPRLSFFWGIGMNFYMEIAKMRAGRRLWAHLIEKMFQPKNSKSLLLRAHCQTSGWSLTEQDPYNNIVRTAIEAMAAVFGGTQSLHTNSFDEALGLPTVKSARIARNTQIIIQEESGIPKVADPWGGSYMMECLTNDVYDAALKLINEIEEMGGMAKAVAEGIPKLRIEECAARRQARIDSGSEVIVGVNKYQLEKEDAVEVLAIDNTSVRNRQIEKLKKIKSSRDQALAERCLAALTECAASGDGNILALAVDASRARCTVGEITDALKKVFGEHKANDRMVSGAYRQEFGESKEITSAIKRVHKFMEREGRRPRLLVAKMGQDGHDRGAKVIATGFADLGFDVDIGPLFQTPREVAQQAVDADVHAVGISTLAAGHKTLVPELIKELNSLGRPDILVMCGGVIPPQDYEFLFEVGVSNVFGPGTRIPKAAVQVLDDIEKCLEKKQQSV

T6: endogenous methylmalonyl-CoA mutase (MMUT) (human (endogenous in 293T)) (UniProt P22033)
T6 sequence: T5 sequence

T7: C-terminally FLAG-tagged MMAA (UniProt Q8IVH4)
T7 sequence: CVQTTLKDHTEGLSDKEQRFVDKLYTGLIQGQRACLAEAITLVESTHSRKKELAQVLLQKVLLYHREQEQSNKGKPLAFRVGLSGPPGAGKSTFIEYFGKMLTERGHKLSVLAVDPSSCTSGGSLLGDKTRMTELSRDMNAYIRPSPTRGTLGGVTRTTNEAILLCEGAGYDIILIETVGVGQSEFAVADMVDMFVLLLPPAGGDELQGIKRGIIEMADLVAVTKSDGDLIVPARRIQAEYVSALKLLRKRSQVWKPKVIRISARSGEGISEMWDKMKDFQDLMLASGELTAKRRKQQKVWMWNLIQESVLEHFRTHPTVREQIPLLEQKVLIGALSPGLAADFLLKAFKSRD

B1: endogenous methylmalonyl-CoA mutase (MMUT) (protein, UniProt P22033 33-750)
chain: T5 sequence
B2: endogenous MMAB (protein, UniProt Q96EY8 33-250)
chain: T3 sequence

Columns and labels:
[1] = biological target: T1, C-terminally FLAG-tagged ACO2; assay: co-IP; cross-linking IP: transfected 293T cells crosslinked with 0.5% PFA in PBS 10 min RT, quenched with glycine, lysed in 1% Nonidet P-40, 0.5% deoxycholine, 150 mM NaCl, 50 mM Tris-HCl pH 7.5; IP with anti-FLAG M2 on Dynabeads Protein G; immunoblot (anti-MMUT, anti-MMAB, anti-DLST)
[2] = biological target: T2, C-terminally FLAG-tagged MCEE; assay: as above
[3] = biological target: T3, C-terminally FLAG-tagged MMAB; assay: as above
[4] = biological target: T4, C-terminally FLAG-tagged VLCAD; assay: as above
[5] = biological target: T5, C-terminally FLAG-tagged methylmalonyl-CoA mutase (MMUT); assay: as above
[6] = biological target: T6, endogenous methylmalonyl-CoA mutase (MMUT) (human (endogenous in 293T)); assay: co-IP; cross-linking IP of 293T cell extracts (0.5% PFA) with anti-MMUT or anti-MMAB on Dynabeads Protein G; immunoblot for endogenous MMAB and MMUT
[7] = biological target: T7, C-terminally FLAG-tagged MMAA; assay: co-IP; cross-linking IP: transfected 293T cells crosslinked with 0.5% PFA in PBS 10 min RT, quenched with glycine, lysed in 1% Nonidet P-40, 0.5% deoxycholine, 150 mM NaCl, 50 mM Tris-HCl pH 7.5; IP with anti-FLAG M2 on Dynabeads Protein G; immunoblot (anti-MMUT, anti-MMAB, anti-DLST)

Binder | binding [1] | binding [2] | binding [3] | binding [4] | binding [5] | binding [6] | binding [7]
B1 | no binding | binds | binds | no binding | binds |  | 
B2 | no binding | binds | binds | no binding | binds | binds | binds
